In the supplement of paper PMC10126150:
Sequences with one replicate were seen in a single cluster, so their values are uncertain.

Tested on: ATP
Assay: switch fluorescence ratio, 500 uM ATP over buffer (Cy3 cluster intensity, sum of 5 cycles each) (fold (ratio)); higher = stronger signal-on switching upon ATP binding; sequences stand for … in TCGTCGGCAGCGTCAGATGTGTATAAGAGACAGTTTTTTTTTTTTTTTTTTTTTTTTT…TC
Conditions: aptamer strand: ATP DNA aptamer (quencher-CACCTGGGGGAGTATTGCGGAGGAAGG + anchor), 100 nM annealed; ATP concentration: 500 uM; one replicate
Method in brief: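 Switching-strand clusters labelled with Cy3 on a modified Illumina MiSeq flow-cell were annealed to 100 nM quencher-labelled ATP aptamer, imaged in selection buffer, and re-imaged after 15 min with 500 uM ATP at 22 °C. This was done over five cycles with NaOH stripping and re-annealing in between. The fluorescence ratio is summed target-cycle over summed buffer-cycle Cy3 intensity per cluster, averaged per switch-domain sequence, excluding clusters outside 100-1000 RFU.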
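Note: ATP exposure 15 min at 22 °C before imaging.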

Row | Sequence | switch fluorescence ratio
1 | GTGTTGTATC | 1.03
2 | CACGACTTTA | 1.03
3 | CTTAGGGGCT | 0.961
4 | GAATGGGTGC | 0.98
5 | TTCTTCGAGT | 0.971
6 | TGTGCATGCA | 0.946
7 | AAATCCTGGG | 1.06
8 | AAGCTGGTGC | 0.977
9 | ATAGTTAGCA | 0.991
10 | ATCTTGTAGG | 1
11 | AGACCCCAG | 0.928
12 | CCACGCGCCC | 2.02
13 | TGGCCGGGGT | 0.959
14 | GTAGAGGGAC | 1.02
15 | TAATGCTAAC | 1.05
16 | TCTGTTAAAT | 1
17 | CTGGTGGCGC | 0.942
18 | GCAAATTTTT | 0.999
19 | TAACTGTTGA | 0.941
20 | TCAGCTCATT | 1.02
21 | GCGTTTGAAG | 1
22 | TGGGCGGACA | 0.998
23 | CTGTGAAACA | 1.02
24 | CAAGGAGAT | 1.03
25 | ATTAGAAAGG | 0.996
26 | TCAGTAAAGG | 1.03

Row | Sequence | switch fluorescence ratio
27 | AAATAATGAG | 0.947
28 | TAGTTATGTC | 0.905
29 | GCCATATAGA | 1.04
30 | CTGACTATCT | 0.996
31 | AAGGGGCCAA | 1.03
32 | ACAAGGTATG | 1.05
33 | ACTGGCTCGT | 1
34 | ATACAAGATT | 1
35 | GTAATGCTGT | 1.17
36 | CACCTAGGCC | 1.05
37 | CCTTTTCATC | 0.985
38 | CAACACGATA | 1.2
39 | AATGAGTTGA | 0.975
40 | TAAACGCATA | 1.85
41 | GGTTGTCCCT | 1.01
42 | CAAAGGATCC | 0.966
43 | TCATAGGTCT | 0.96
44 | ATTGGGATTT | 0.977
45 | GTTATTACAC | 0.992
46 | TGTAATGTGG | 0.959
47 | ATTTACAACG | 0.969
48 | CGTCGATTTG | 0.999
49 | CTCATTTTTA | 0.987
50 | TGTGAGAAGC | 0.993
51 | CGTGTACAA | 1.03
52 | AGTCACTGT | 1.02

Row | Sequence | switch fluorescence ratio
53 | CCGCGCGGTT | 1.04
54 | TTACAGAGGA | 1.06
55 | CGGGGCAGTA | 0.982
56 | CTGATAAAGA | 1.01
57 | GATGGCTAAT | 0.976
58 | TCGAGGCTTC | 1.07
59 | GTAAAAAATA | 1.03
60 | GCCTTGATGA | 0.943
61 | ATCGGCGGAC | 1.14
62 | CCTTTGGGAC | 1.06
63 | TAATCGAGTA | 1.03
64 | CGGTAGTGGT | 1.01
65 | TTTATTGGGT | 1.01
66 | AAATCATTCA | 1.02
67 | AGGAACAAAT | 1.02
68 | TTATAAGGCA | 0.964
69 | ATGCCAGTTT | 0.948
70 | TCAATCTATG | 1.02
71 | GAGGCAGGT | 0.991
72 | CCTGCGTGTC | 1.76
73 | TGGACTCATA | 0.996
74 | CCCAAAATTT | 0.954
75 | GCCGGCAGAG | 0.984
76 | ATCGTTTTTC | 1.03
77 | GCTAGATGG | 1.02
78 | ACTATTCATG | 1.02

Row | Sequence | switch fluorescence ratio
79 | TACTTGCCT | 1.07
80 | TTCGCGTCCG | 1.03
81 | TCGGATCAAT | 1.1
82 | ACGCGCGAAT | 0.997
83 | TGGTGCTGCG | 0.869
84 | ACGCAAAAGA | 1.19
85 | AGCTGGGTGG | 0.964
86 | CAAGCAACCA | 1.12
87 | GCAGCTTTGC | 1.06
88 | TTACTTTACA | 1.24
89 | TACGATGGGG | 1.03
90 | TGACCTCACG | 1.2
91 | AACTCCGGCT | 1.01
92 | ATGTGTAGTG | 1
93 | ACGCTGGG | 1.17
94 | TGCCTCAGTC | 1.08
95 | TATATGTACA | 0.964
96 | CGGGTGAAAA | 0.964
97 | GTTTACGGAG | 1.05
98 | TTTTTCCGG | 0.953
99 | CGATATGAT | 0.976
100 | CTTATCAGCG | 0.977
101 | GGCTCGTTCG | 0.978
102 | TGCGGATGTA | 0.977
103 | CCTCTGAGTG | 1.44
104 | TAAATCAGGC | 0.93

Row | Sequence | switch fluorescence ratio
105 | GAGCGAGTCG | 0.987
106 | CGTGTTCATG | 1.02
107 | GAAAAACATG | 1.01
108 | AACGCCTTTG | 1.05
109 | CGAGATATTT | 0.992
110 | AGATTAAACC | 1.05
111 | TATCGCGGGG | 0.964
112 | GTCGTAATCG | 1.01
113 | AGGCAGGCA | 1.01
114 | AACGTCTATC | 1.02
115 | TTAATACCCT | 1.08
116 | CGCGTAGATC | 0.992
117 | AAATACCAAC | 1.18
118 | CTTACTGTGC | 1.03
119 | ATCTAACAGG | 1.06
120 | AGCCCGAATC | 1.03
121 | TCGGTGTCCA | 0.937
122 | TGAAGCCCGG | 0.982
123 | ACCACGCCAA | 1.64
124 | CTGCAGGGGT | 1.13
125 | TGACGTTACT | 1.31
126 | TTAGGCCACT | 0.96
127 | GTGAAGTTAT | 0.998
128 | CCGTTTACGA | 1.4
129 | ATATAGTTGG | 0.985
130 | GGACGAATCT | 1

Row | Sequence | switch fluorescence ratio
131 | GGAGGGGTTC | 0.961
132 | AGCAAACTGG | 1.14
133 | TACGTAAAGT | 1.03
134 | TGCGAAATAG | 1.53
135 | CCTTAGGTAG | 1.05
136 | AAGTGCATCG | 0.987
137 | ACTAGCT | 0.991
138 | TTTACGTACT | 1.88
139 | ATTGTGTT | 0.981
140 | CCGGGGGGT | 1.03
141 | TTATTTGTAT | 1.04
142 | TGGGTGGAA | 1
143 | TGGATAGGCC | 0.984
144 | GGGTACAAGG | 1.01
145 | ACATGTGCCA | 1
146 | GAAGCCTTCA | 1.53
147 | GCGGGGCGTG | 1.04
148 | ACTTGAAAGT | 1.02
149 | AGTGGCATAA | 1.06
150 | ATTCAGCGG | 1.01
151 | GGCAGCTCAT | 1.01
152 | CGTATTACTG | 0.883
153 | GACGTTGGAG | 0.993
